“And” between values parts separate entries of the source, which are not always exact repeats. Identical values can stand only once. In all, about 310,000 compounds went through this assay and about 18,000 (5.8%) were called active. The inconclusive results got no clear call from the source; some entries with a clear call stand among them for comparison. Calls follow the shape of the dose curve; as a rule, active = well fitted inhibition curve with a large enough effect; inconclusive = small, poorly fitted or top-dose-only effect, or another doubt; inactive = no such curve, though single readings can be large or run the other way. No potency is given beside an inconclusive call; the fits are too rough.
Assay: Primary qHTS for delayed death inhibitors of the malarial parasite plastid, 48 hour incubation
Conditions: P. falciparum luciferase growth in erythrocytes; series mostly up to 28.7 µM; activity change, negative = inhibition: at the top concentration
Procedure, shortened: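 Cell-based growth assay: transgenic P. falciparum expressing firefly luciferase, cultured in red cells within RPMI 1640 containing 0.5% w/v Albumax, 24 mM bicarbonate and gentamycin. A drop in luciferase activity indicates inhibition.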
% is scaled to controls: 0 for no effect and ±100 for the full control effect; potency is read from the fitted curve at half-maximal effect; tags tell the direction and shape of the fitted curve.

SMILES	activity change, negative = inhibition	Potency
Cc1csc(NC(=O)c2ccco2)c1C(=O)c1ccccc1	inactive: 18.4%	–
O=C(Nc1ccccc1)N1CCCN(c2ccc(C(F)(F)F)cn2)CC1	–	inconclusive [inhibitor, partial curve, poor fit]
COc1ccc(CNc2nc3ccccc3n2CCN2CCOCC2)cc1	–	inconclusive [inhibitor, single point]
CC(C)C(NS(=O)(=O)c1cccc2nsnc12)C(=O)NC1CCCCC1 (configuration not stated)	inactive: 15.3%	–
CC(C)(CNC(=O)c1cccc(NS(=O)(=O)c2ccc(Br)cc2)c1)N1CCOCC1	inactive: -0.894%	–
CC1Cc2ccccc2N1C(=O)c1cc2sccc2n1Cc1ccccc1 (configuration not stated)	–	active: 11.7 µM
Cc1cccc(CN2CCc3c(OCC(=O)NCc4ccco4)cccc3C2=O)c1	–	active: 11.7 µM
CC1=CC(C)C(CN(CCC[N+](C)(C)C)C(=O)Nc2ccccc2)C(C)C1 (configuration not stated)	–	inconclusive [inhibitor, single point]
COc1cccc(CNC(=O)CCCn2ncn3c(cc4occc43)c2=O)c1	–	inconclusive [inhibitor, single point]
O=C1CC(NS(=O)(=O)c2ccc(F)cc2)CN1c1ccc2c(c1)OCCO2 (configuration not stated)	inactive: 3.46%	–
CN1CCN(CCCN2c3ccccc3Sc3ccc(S(=O)(=O)N(C)C)cc32)CC1	–	active: 3.61 µM and active: 13.1 µM
Cc1ccc2nc(-c3ccccc3)cc(C(=O)NCC(c3ccco3)N(C)C)c2c1 (configuration not stated)	–	inconclusive [inhibitor, single point]
CCOc1ccc(C(=O)CCC(=O)NCC(=O)OCc2ccccc2)cc1OCC	–	inconclusive [inhibitor, partial curve, poor fit]
CCNC(=S)Nc1scc(-c2ccccc2)c1C(=O)OCC	inactive: -0.74%	–
COc1ccccc1C(NC(=O)C1CCCCC1)c1c(O)ccc2ccccc12 (configuration not stated)	inactive: -10.4%	–
CN(C)S(=O)(=O)c1cccc(NC(=O)/C=C/c2ccc(S(=O)(=O)N3CCOCC3)cc2)c1	–	active: 8.28 µM
CCCOc1ccc(NC(=O)OC2CCN(C)CC2)cc1	inactive: 2%	–
O=C(CN1CCOCC1)N1CCCc2ccccc21	inactive: 12.3%	–
Cn1cc([N+](=O)[O-])c(C(=O)N/N=C\c2c[nH]c3ccccc23)n1	inactive: 15%	–
COc1ccc(Nc2nnc(SCC(=O)N3CC(=O)Nc4ccccc43)s2)cc1	–	inconclusive [inhibitor, partial curve, poor fit]
CC(=O)N(Cc1cccnc1)c1cccc(-c2nc3ccccc3s2)c1	–	inconclusive [inhibitor, single point]
COc1ccc(NS(=O)(=O)c2cccc(-c3nnc(-c4ccccc4)o3)c2)cc1	–	inconclusive [inhibitor, single point]
Clc1ccc2c(c1)C=Nc1c(NCc3ccccc3)ncnc1O2	–	inconclusive [inhibitor, partial curve, poor fit]

SMILES	activity change, negative = inhibition	Potency
O=C(NCc1cccnc1)c1cc(Sc2cccc(Cl)c2)nc2ccccc12	–	inconclusive [inhibitor, single point]
Fc1ccc(Nc2ccc(-c3ccc(F)cc3)nn2)cc1	inactive: 19%	–
O=C(Nc1ccc(Nc2ccccc2)cc1)c1ccc(F)cc1	–	inconclusive [inhibitor, partial curve, poor fit]
Cn1c(=O)c2c(nc(CN3CCN(c4ccccc4)CC3)n2Cc2c(F)cccc2Cl)n(C)c1=O	–	inconclusive [inhibitor, partial curve, poor fit]
CCC(C)Sc1nc2c(c(=O)[nH]c(=O)n2C)n1CC(O)COc1ccccc1C (configuration not stated)	–	inconclusive [inhibitor, single point]
CCCCC(O)(c1ccccc1)C(CN1CCOCC1)c1ccccc1 (configuration not stated)	–	inconclusive [inhibitor, partial curve]
COc1cc(-c2nc(=S)[nH][nH]2)cc(OC)c1OC	inactive: 38.8%	–
c1ccc2c(N3CCCCC3)nc(N3CCCCC3)nc2c1	inactive: 1.05%	–
CCC(=O)n1nc(NCc2ccc(OC)c(OC)c2)nc1NCc1ccc(OC)c(OC)c1	–	inconclusive [inhibitor, partial curve, poor fit]
O=C(/C=C/c1ccco1)N1CCN(S(=O)(=O)/C=C/c2ccccc2)CC1	–	inconclusive [inhibitor, single point]
CCOc1ccccc1C(=O)Nc1ccccc1O	–	inconclusive [inhibitor, single point]
CCCCC1=CC2=CC(=O)C(C)(OC(=O)CC)C(=O)C2=CN1C1CCCC1 (configuration not stated)	–	inconclusive [inhibitor, single point]
CCCC(=O)NC(c1ccc(OC)cc1)c1c(O)ccc2ccccc12 (configuration not stated)	–	active: 11.7 µM
COc1ccccc1CCC(=O)Nc1cccc(S(=O)(=O)N2CCCCCC2)c1	–	inconclusive [inhibitor, single point]
Cc1c(OC(C(=O)O)c2ccccc2)ccc2c(-c3ccccc3)cc(=O)oc12 (configuration not stated)	–	inconclusive [inhibitor, partial curve, poor fit]
COc1cc(OC)cc(C(=O)Nn2cc(C(=O)Nc3ccc(F)cc3F)c3ccccc3c2=O)c1	–	inconclusive [inhibitor, partial curve, poor fit]
CNC(=S)N(CCc1c(C)[nH]c2ccc(F)cc12)Cc1ccco1	–	inconclusive [inhibitor, partial curve, poor fit]
COc1ccc(C2CC(c3ccccc3OC(C)=O)=NN2C(=O)/C=C/c2ccccc2)cc1 (configuration not stated)	–	inconclusive [inhibitor, single point]
CC(=O)Nc1c(S(=O)(=O)c2ccccc2)c2nc3ccccc3nc2n1Cc1ccccc1	–	inconclusive [inhibitor, single point]
CN(C)c1ccc2c(c1)OC(N)=C(C#N)C2c1cccc(F)c1 (configuration not stated)	–	active: 13.1 µM
COc1ccc(C(=O)NCC(=O)OCc2ccccc2F)cc1	inactive: 9.09%	–
O=C(Nc1ccc(C(=O)N2CCN(c3ccccc3F)CC2)cc1)C1=CSCCO1	inactive: -3.94%	–
Cc1noc(/C=C/c2ccco2)c1S(=O)(=O)N1CCC(C(=O)Nc2ccc(Cl)cn2)CC1	–	inconclusive [inhibitor, single point]

SMILES	activity change, negative = inhibition	Potency
CCn1cc(Br)c(C(=O)Nc2nccs2)n1	inactive: 24.4%	–
O=c1cc(-c2c(O)c3ccccc3n(Cc3ccccc3)c2=O)[nH][nH]1	–	inconclusive [inhibitor, single point]
O=S(=O)(c1ccc(NC(=S)NCCC(c2ccccc2)c2ccccc2)cc1)N1CCOCC1	–	inconclusive [inhibitor, single point]
COc1cc2c(cc1OC)CN(C(=O)c1ccc(N3CCCC3)c([N+](=O)[O-])c1)CC2	–	inconclusive [inhibitor, partial curve, poor fit]
CCOC(=O)C1CCCN(S(=O)(=O)c2cc(Br)cc3c2N(C(C)=O)CC3)C1 (configuration not stated)	–	active: 3.7 µM
CC1CCN(C(=O)CN2C(=O)COc3ccc(Cl)cc32)CC1	–	inconclusive [inhibitor, single point]
COc1cc(NC(=O)CN2C(=O)C(=O)N(CC(C)C)C2=O)cc(OC)c1	–	inconclusive [inhibitor, partial curve, poor fit]
COc1cc(CN2CCCC(N3CCc4ccccc4C3)C2)c(Cl)cc1O (configuration not stated)	–	inconclusive [inhibitor, single point]
COc1ccccc1NC(=O)c1ccc(-c2nn(C)c(=O)c3ccccc23)cc1	–	inconclusive [inhibitor, partial curve, poor fit]
O=C1C2=C(C(c3ccccc3)=NCCN2)C(c2cccc([N+](=O)[O-])c2)N1c1ccccc1 (configuration not stated)	–	inconclusive [inhibitor, partial curve]
Cc1ccc(C)c(NC(=O)CNS(=O)(=O)c2ccccc2)c1	–	inconclusive [inhibitor, single point]
CCc1ccc2[nH]c(=O)c(CN(CCCN3CCOCC3)C(=O)Nc3ccccc3)cc2c1	–	inconclusive [inhibitor, single point]
C#CCNC(=O)C1=C[C@@H](c2coc3ccccc3c2=O)C[C@@H](OCCCCO)O1	–	inconclusive [inhibitor, partial curve, poor fit]
Cc1ccc(S(=O)(=O)Nc2ccc3nc(C)sc3c2)c(C)c1	inactive: -25.3%	–
Cc1ccc(NC(=O)CN2C(=O)CSc3ccc(S(=O)(=O)N4CCCCC4)cc32)cc1	–	inconclusive [inhibitor, partial curve]
CCN(CC)CCNc1nc2c(c(=O)[nH]c(=O)n2C)n1CC(O)COc1ccc(Cl)cc1Cl (configuration not stated)	–	inconclusive [inhibitor, single point]
CCOC(=O)c1c(NC(=O)C(NCCN(C)C)c2ccccc2)sc2c1CCCC2 (configuration not stated)	–	active: 9.28 µM
COc1ccccc1NC(=O)C(C)Sc1nc(-c2ccccc2)cn1N (configuration not stated)	–	inconclusive [inhibitor, single point]
Oc1ccccc1Nc1ccccn1	–	inconclusive [inhibitor, partial curve]
CCOc1cc(NC(=O)c2cnccn2)c(OCC)cc1NC(=O)c1cccc(F)c1	inactive: 12.9%	–
O=C(/C=C/c1ccc(S(=O)(=O)N2CCOCC2)cc1)NCc1ccccc1F	–	inconclusive [inhibitor, partial curve, poor fit]

Source: PubChem BioAssay AID504832 (National Center for Advancing Translational Sciences (NCATS), 2011)
